Reference: patent US9585886B2, “ASK1 inhibiting pyrrolopyrimidine derivatives” (CALCHAN LIMITED, priority 2010, dated 2017)

Test system: CCI-induced mechanical allodynia
Details: rats, 3 mg/kg po, 30 mg/kg po bid, day 20 to day 27; measured 1 hour post morning dose on days 22, 25 and 27

Q: For `Cc1c[nH]c2ncnc(N3CCC(NC(=O)c4ccccc4)CC3)c12` [Example 17], which “effect on mechanical allodynia in the CCI model (FIG. 3, Von Frey hairs, AUC)” value is on record?
A: partially reverses mechanical allodynia
